Data taken from PMC12820563, “FoxP3 forms a head-to-head dimer in vivo and stabilizes its multimerization on adjacent microsatellites”.
The other results are listed elsewhere or left out.

What follows are sequences tested against T1, MBP-FoxP1dN (Mus musculus, UniProt P58462 326-579) (assay: PD-seq (MBP pull-down with sequencing); 20 mM Tris-HCl pH 7.5, 100 mM NaCl, 1.5 mM MgCl2, 0.4 uM protein, 0.1 uM dsDNA library, 30 min, room temperature, amylose pull-down; high values mean tight binding). Details: protein: recombinant; tags: His6-MBP; chain copies: 2; dsDNA, one strand shown.
T1 sequence: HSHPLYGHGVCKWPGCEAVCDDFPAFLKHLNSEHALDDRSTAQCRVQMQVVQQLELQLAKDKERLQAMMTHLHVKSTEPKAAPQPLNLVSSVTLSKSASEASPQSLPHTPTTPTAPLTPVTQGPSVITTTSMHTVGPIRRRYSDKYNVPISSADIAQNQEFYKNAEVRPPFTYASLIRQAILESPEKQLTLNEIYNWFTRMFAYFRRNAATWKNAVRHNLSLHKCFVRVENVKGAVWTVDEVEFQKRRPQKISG
Method in brief: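 Binding is reads-per-million enrichment of pull-down over input, with replicates pooled. It comes from 30 min room-temperature incubation in Tris pH 7.5 buffer with NaCl and MgCl2 of 0.4 µM His6-MBP-tagged, N-terminally truncated mouse FoxP3 or FoxP1 fragment from E. coli with 0.1 µM Klenow-filled degenerate double-stranded DNA library, followed by amylose resin capture, three washes and Illumina sequencing of the released DNA.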

Compared with “GATGATTGTTCTCCCAGCTGATGAATTTTTACCTTCGAGTAAACAAATTTTCCTAATCTTTCTGTTCAAGCGCCATCTAC”, “GATGATTGTTCTCCCAGCTGATGAATTGAATCAATCGAGTAAACAAATTTTCCTAATCTTTCTGTTCAAGCGCCATCTAC” is higher in binding signal: 0.923 RPM ratio (pull-down/input) for the first, 0.997 RPM ratio (pull-down/input) for the second.

Going from “GATGATTGTTCTCCCAGCTGATGAATTCGCCTGTTCGAGTAAACAAATTTTCCTAATCTTTCTGTTCAAGCGCCATCTAC” to “GATGATTGTTCTCCCAGCTGATGAATTATACCGCTCGAGTAAACAAATTTTCCTAATCTTTCTGTTCAAGCGCCATCTAC”, the binding signal rises from 0.847 RPM ratio (pull-down/input) to 0.892 RPM ratio (pull-down/input).

First: GATGATTGTTCTCCCAGCTGATGAATTGTGCACCTCGAGTAAACAAATTTTCCTAATCTTTCTGTTCAAGCGCCATCTAC
Second: GATGATTGTTCTCCCAGCTGATGAATTCCTTGCCTCGAGTAAACAAATTTTCCTAATCTTTCTGTTCAAGCGCCATCTAC
The binding signal of the first is higher: 0.983 RPM ratio (pull-down/input) for the first, 0.809 RPM ratio (pull-down/input) for the second.

Going from “GATGATTGTTCTCCCAGCTGATGAATTGTAACTATCGAGTAAACAAATTTTCCTAATCTTTCTGTTCAAGCGCCATCTAC” to “GATGATTGTTCTCCCAGCTGATGAATTTGATTTTTCGAGTAAACAAATTTTCCTAATCTTTCTGTTCAAGCGCCATCTAC”, the binding signal falls from 1.25 RPM ratio (pull-down/input) to 1.05 RPM ratio (pull-down/input).

Compared with “GATGATTGTTCTCCCAGCTGATGAATTCAAGTTCTCGAGTAAACAAATTTTCCTAATCTTTCTGTTCAAGCGCCATCTAC”, “GATGATTGTTCTCCCAGCTGATGAATTTAGTTCGTCGAGTAAACAAATTTTCCTAATCTTTCTGTTCAAGCGCCATCTAC” is higher in binding signal: 0.77 RPM ratio (pull-down/input) for the first, 0.974 RPM ratio (pull-down/input) for the second.

Compared with “GATGATTGTTCTCCCAGCTGATGAATTCGCAGCATCGAGTAAACAAATTTTCCTAATCTTTCTGTTCAAGCGCCATCTAC”, “GATGATTGTTCTCCCAGCTGATGAATTGAAACTTTCGAGTAAACAAATTTTCCTAATCTTTCTGTTCAAGCGCCATCTAC” is lower in binding signal: 1.04 RPM ratio (pull-down/input) for the first, 0.872 RPM ratio (pull-down/input) for the second.

Going from “GATGATTGTTCTCCCAGCTGATGAATTACAGCTGTCGAGTAAACAAATTTTCCTAATCTTTCTGTTCAAGCGCCATCTAC” to “GATGATTGTTCTCCCAGCTGATGAATTATTCGCATCGAGTAAACAAATTTTCCTAATCTTTCTGTTCAAGCGCCATCTAC”, the binding signal rises from 0.953 RPM ratio (pull-down/input) to 1.4 RPM ratio (pull-down/input).

First: GATGATTGTTCTCCCAGCTGATGAATTCTTTGTTTCGAGTAAACAAATTTTCCTAATCTTTCTGTTCAAGCGCCATCTAC
Second: GATGATTGTTCTCCCAGCTGATGAATTGTTTCCATCGAGTAAACAAATTTTCCTAATCTTTCTGTTCAAGCGCCATCTAC
The binding signal of the first is lower: 1.23 RPM ratio (pull-down/input) for the first, 1.35 RPM ratio (pull-down/input) for the second.

First: GATGATTGTTCTCCCAGCTGATGAATTCTGTACTTCGAGTAAACAAATTTTCCTAATCTTTCTGTTCAAGCGCCATCTAC
Second: GATGATTGTTCTCCCAGCTGATGAATTGAGAGGGTCGAGTAAACAAATTTTCCTAATCTTTCTGTTCAAGCGCCATCTAC
The binding signal of the first is higher: 0.932 RPM ratio (pull-down/input) for the first, 0.757 RPM ratio (pull-down/input) for the second.

Going from “GATGATTGTTCTCCCAGCTGATGAATTTTACCGATCGAGTAAACAAATTTTCCTAATCTTTCTGTTCAAGCGCCATCTAC” to “GATGATTGTTCTCCCAGCTGATGAATTGGATGGGTCGAGTAAACAAATTTTCCTAATCTTTCTGTTCAAGCGCCATCTAC”, the binding signal falls from 0.896 RPM ratio (pull-down/input) to 0.805 RPM ratio (pull-down/input).

Going from “GATGATTGTTCTCCCAGCTGATGAATTAACCAATTCGAGTAAACAAATTTTCCTAATCTTTCTGTTCAAGCGCCATCTAC” to “GATGATTGTTCTCCCAGCTGATGAATTTCGTAACTCGAGTAAACAAATTTTCCTAATCTTTCTGTTCAAGCGCCATCTAC”, the binding signal falls from 0.958 RPM ratio (pull-down/input) to 0.927 RPM ratio (pull-down/input).

First: GATGATTGTTCTCCCAGCTGATGAATTCTAAAGCTCGAGTAAACAAATTTTCCTAATCTTTCTGTTCAAGCGCCATCTAC
Second: GATGATTGTTCTCCCAGCTGATGAATTATTCGTATCGAGTAAACAAATTTTCCTAATCTTTCTGTTCAAGCGCCATCTAC
The binding signal of the first is lower: 0.835 RPM ratio (pull-down/input) for the first, 1.09 RPM ratio (pull-down/input) for the second.

Compared with “GATGATTGTTCTCCCAGCTGATGAATTAGCCGAATCGAGTAAACAAATTTTCCTAATCTTTCTGTTCAAGCGCCATCTAC”, “GATGATTGTTCTCCCAGCTGATGAATTTTTTCGTTCGAGTAAACAAATTTTCCTAATCTTTCTGTTCAAGCGCCATCTAC” is higher in binding signal: 0.852 RPM ratio (pull-down/input) for the first, 1.05 RPM ratio (pull-down/input) for the second.

First: GATGATTGTTCTCCCAGCTGATGAATTAGCCCCATCGAGTAAACAAATTTTCCTAATCTTTCTGTTCAAGCGCCATCTAC
Second: GATGATTGTTCTCCCAGCTGATGAATTTGATACATCGAGTAAACAAATTTTCCTAATCTTTCTGTTCAAGCGCCATCTAC
The binding signal of the first is lower: 0.834 RPM ratio (pull-down/input) for the first, 1.19 RPM ratio (pull-down/input) for the second.

First: GATGATTGTTCTCCCAGCTGATGAATTATCTATATCGAGTAAACAAATTTTCCTAATCTTTCTGTTCAAGCGCCATCTAC
Second: GATGATTGTTCTCCCAGCTGATGAATTCATGTTGTCGAGTAAACAAATTTTCCTAATCTTTCTGTTCAAGCGCCATCTAC
The binding signal of the first is lower: 1.14 RPM ratio (pull-down/input) for the first, 2.26 RPM ratio (pull-down/input) for the second.

First: GATGATTGTTCTCCCAGCTGATGAATTATAAAGGTCGAGTAAACAAATTTTCCTAATCTTTCTGTTCAAGCGCCATCTAC
Second: GATGATTGTTCTCCCAGCTGATGAATTTCGGTGCTCGAGTAAACAAATTTTCCTAATCTTTCTGTTCAAGCGCCATCTAC
The binding signal of the first is higher: 0.947 RPM ratio (pull-down/input) for the first, 0.846 RPM ratio (pull-down/input) for the second.

Compared with “GATGATTGTTCTCCCAGCTGATGAATTGGGTCTGTCGAGTAAACAAATTTTCCTAATCTTTCTGTTCAAGCGCCATCTAC”, “GATGATTGTTCTCCCAGCTGATGAATTCTGTCTTTCGAGTAAACAAATTTTCCTAATCTTTCTGTTCAAGCGCCATCTAC” is lower in binding signal: 0.86 RPM ratio (pull-down/input) for the first, 0.845 RPM ratio (pull-down/input) for the second.

First: GATGATTGTTCTCCCAGCTGATGAATTGTGTTACTCGAGTAAACAAATTTTCCTAATCTTTCTGTTCAAGCGCCATCTAC
Second: GATGATTGTTCTCCCAGCTGATGAATTTACGAGGTCGAGTAAACAAATTTTCCTAATCTTTCTGTTCAAGCGCCATCTAC
The binding signal of the first is higher: 1.29 RPM ratio (pull-down/input) for the first, 1.09 RPM ratio (pull-down/input) for the second.

Going from “GATGATTGTTCTCCCAGCTGATGAATTCACCTGATCGAGTAAACAAATTTTCCTAATCTTTCTGTTCAAGCGCCATCTAC” to “GATGATTGTTCTCCCAGCTGATGAATTATATAGATCGAGTAAACAAATTTTCCTAATCTTTCTGTTCAAGCGCCATCTAC”, the binding signal rises from 0.808 RPM ratio (pull-down/input) to 1.05 RPM ratio (pull-down/input).

Compared with “GATGATTGTTCTCCCAGCTGATGAATTCATATTTTCGAGTAAACAAATTTTCCTAATCTTTCTGTTCAAGCGCCATCTAC”, “GATGATTGTTCTCCCAGCTGATGAATTTGCAATGTCGAGTAAACAAATTTTCCTAATCTTTCTGTTCAAGCGCCATCTAC” is lower in binding signal: 1.74 RPM ratio (pull-down/input) for the first, 1.15 RPM ratio (pull-down/input) for the second.
